# The other results are listed elsewhere or left out.
# B1: Gal 4 (Homo sapiens), Q8K419 (protein)
# chain: MAYVPAPGYQPTYNPTLPYKRPIPGGLSVGMSVYIQGMAKENMRRFHVNFAVGQDDGADVAFHFNPRFDGWDKVVFNTMQSGQWGKEEKKKSMPFQKGKHFELVFMVMPEHYKVVVNGNSFYEYGHRLPVQMVTHLQVDGDLELQSINFLGGQPAAAPYPGAMTIPAYPAGSPGYNPPQMNTLPVMTGPPVFNPRVPYVGALQGGLTVRRTIIIKGYVLPTARNFVINFKVGSSGDIALHLNPRIGDSVVRNSFMNGSWGAEERKVAYNPFGPGQFFDLSIRCGMDRFKVFANGQHLFDFSHRFQAFQMVDTLEINGDITLSYVQI
# Assays:
# Experiment in all cases: glycan array binding signal (z-score within array); higher = stronger binding
# Settings in all cases: glycan notation: IUPAC condensed, linker removed
# [1] = target: Gal(b1-3)GlcNAc(b1-3)Gal(b1-3)GlcNAc
# Outline: (§1)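 The binding signal is a Z-score computed within each array and averaged over linkers. Arrays of the same protein sequence at different concentrations or buffers were also averaged together. Data originate from 3228 arrays in the Consortium for Functional Glycomics database, kept only where the protein sequence was available.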
# [2] = target: Gal(b1-3)GlcNAc(b1-3)Gal(b1-4)Glc
# Outline: as §1
# [3] = target: Gal(b1-3)GlcNAc(b1-3)Gal(b1-4)GlcNAc
# Outline: as §1
# [4] = target: Gal(b1-3)GlcNAc(b1-3)Gal(b1-4)GlcNAc(b1-6)[Gal(b1-3)GlcNAc(b1-3)]Gal(b1-4)Glc
# Outline: as §1
# [5] = target: Gal(b1-3)GlcNAc(b1-3)Gal(b1-4)[Fuc(a1-3)]GlcNAc(b1-6)[Gal(b1-3)GlcNAc(b1-3)]Gal(b1-4)Glc
# Outline: as §1
# [6] = target: Gal(b1-3)GlcNAc(b1-3)GalNAc
# Outline: as §1
# [7] = target: Gal(b1-3)GlcNAc(b1-6)Gal(b1-4)GlcNAc
# Outline: as §1
# [8] = target: Gal(b1-3)GlcNAc(b1-6)GalNAc
# Outline: as §1
# [9] = target: Gal(b1-3)GlcNAc6S
# Outline: as §1
# [10] = target: Gal(b1-3)[Fuc(a1-4)]GlcNAc
# Outline: as §1
# [11] = target: Gal(b1-3)[Fuc(a1-4)]GlcNAc(b1-2)Man(a1-3)[Gal(b1-3)[Fuc(a1-4)]GlcNAc(b1-2)Man(a1-6)]Man(b1-4)GlcNAc(b1-4)GlcNAc
# Outline: as §1
# [12] = target: Gal(b1-3)[Fuc(a1-4)]GlcNAc(b1-2)Man(a1-3)[Gal(b1-3)[Fuc(a1-4)]GlcNAc(b1-2)Man(a1-6)]Man(b1-4)GlcNAc(b1-4)[Fuc(a1-6)]GlcNAc
# Outline: as §1
# [13] = target: Gal(b1-3)[Fuc(a1-4)]GlcNAc(b1-3)Gal(b1-3)[Fuc(a1-4)]GlcNAc
# Outline: as §1
# [14] = target: Gal(b1-3)[Fuc(a1-4)]GlcNAc(b1-3)Gal(b1-4)GlcNAc
# Outline: as §1
# [15] = target: Gal(b1-3)[Fuc(a1-4)]GlcNAc(b1-3)Gal(b1-4)[Fuc(a1-3)]GlcNAc
# Outline: as §1
# [16] = target: Gal(b1-3)[Fuc(a1-4)]GlcNAc(b1-6)GalNAc
# Outline: as §1
# [17] = target: Gal(b1-3)[GlcNAc(b1-6)]GalNAc
# Outline: as §1
# [18] = target: Gal(b1-3)[Neu5Ac(a2-6)]GalNAc
# Outline: as §1
# [19] = target: Gal(b1-3)[Neu5Ac(a2-6)]GlcNAc(b1-6)Gal(b1-4)Glc
# Outline: as §1
# [20] = target: Gal(b1-3)[Neu5Ac(b2-6)]GalNAc
# Outline: as §1
# [21] = target: Gal(b1-4)Gal
# Outline: as §1
# [22] = target: Gal(b1-4)GalNAc(a1-3)[Fuc(a1-2)]Gal(b1-4)GlcNAc
# Outline: as §1
# [23] = target: Gal(b1-4)GalNAc(b1-3)[Fuc(a1-2)]Gal(b1-4)GlcNAc
# Outline: as §1
# [24] = target: Gal(b1-4)Glc
# Outline: as §1
# [25] = target: Gal(b1-4)Glc6S
# Outline: as §1
# [26] = target: Gal(b1-4)GlcNAc
# Outline: as §1
# [27] = target: Gal(b1-4)GlcNAc(a1-6)Gal(b1-4)GlcNAc
# Outline: as §1
# [28] = target: Gal(b1-4)GlcNAc(b1-2)Man
# Outline: as §1
# [29] = target: Gal(b1-4)GlcNAc(b1-2)Man(a1-3)Man(b1-4)GlcNAc(b1-4)GlcNAc
# Outline: as §1
# [30] = target: Gal(b1-4)GlcNAc(b1-2)Man(a1-3)[Gal(b1-4)GlcNAc(b1-2)Man(a1-6)]Man(b1-4)GlcNAc(b1-4)GlcNAc
# Outline: as §1
# [31] = target: Gal(b1-4)GlcNAc(b1-2)Man(a1-3)[Gal(b1-4)GlcNAc(b1-2)Man(a1-6)]Man(b1-4)GlcNAc(b1-4)[Fuc(a1-6)]GlcNAc
# Outline: as §1
# [32] = target: Gal(b1-4)GlcNAc(b1-2)Man(a1-3)[Gal(b1-4)GlcNAc(b1-2)][GlcNAc(b1-4)]Man(b1-4)GlcNAc(b1-4)GlcNAc
# Outline: as §1
# [33] = target: Gal(b1-4)GlcNAc(b1-2)Man(a1-3)[GlcNAc(b1-2)Man(a1-6)]Man(b1-4)GlcNAc(b1-4)GlcNAc
# Outline: as §1
# [34] = target: Gal(b1-4)GlcNAc(b1-2)Man(a1-3)[Man(a1-6)]Man(b1-4)GlcNAc(b1-4)GlcNAc
# Outline: as §1
# [35] = target: Gal(b1-4)GlcNAc(b1-2)Man(a1-6)Man(b1-4)GlcNAc(b1-4)GlcNAc
# Outline: as §1
# [36] = target: Gal(b1-4)GlcNAc(b1-2)Man(a1-6)[GlcNAc(b1-2)Man(a1-3)]Man(b1-4)GlcNAc(b1-4)GlcNAc
# Outline: as §1
# [37] = target: Gal(b1-4)GlcNAc(b1-2)Man(a1-6)[Man(a1-3)]Man(b1-4)GlcNAc(b1-4)GlcNAc
# Outline: as §1
# [38] = target: Gal(b1-4)GlcNAc(b1-2)[Gal(b1-4)GlcNAc(b1-4)]Man(a1-3)[Gal(b1-4)GlcNAc(b1-2)Man(a1-6)]Man(b1-4)GlcNAc(b1-4)GlcNAc
# Outline: as §1
binder,measurement,setting,value
B1,glycan array binding signal (z-score),[1],0.868
same,glycan array binding signal (z-score),[2],0.818
same,glycan array binding signal (z-score),[3],-0.016
same,glycan array binding signal (z-score),[4],-0.033
same,glycan array binding signal (z-score),[5],-0.017
same,glycan array binding signal (z-score),[6],-0.185
same,glycan array binding signal (z-score),[7],-0.093
same,glycan array binding signal (z-score),[8],-0.168
same,glycan array binding signal (z-score),[9],0.692
same,glycan array binding signal (z-score),[10],-0.193
same,glycan array binding signal (z-score),[11],0.009
same,glycan array binding signal (z-score),[12],-0.174
same,glycan array binding signal (z-score),[13],-0.198
same,glycan array binding signal (z-score),[14],-0.185
same,glycan array binding signal (z-score),[15],-0.193
same,glycan array binding signal (z-score),[16],-0.193
same,glycan array binding signal (z-score),[17],-0.174
same,glycan array binding signal (z-score),[18],-0.197
same,glycan array binding signal (z-score),[19],-0.177
same,glycan array binding signal (z-score),[20],-0.206
same,glycan array binding signal (z-score),[21],-0.201
same,glycan array binding signal (z-score),[22],2.3
same,glycan array binding signal (z-score),[23],-0.196
same,glycan array binding signal (z-score),[24],-0.126
same,glycan array binding signal (z-score),[25],0.106
same,glycan array binding signal (z-score),[26],-0.172
same,glycan array binding signal (z-score),[27],-0.188
same,glycan array binding signal (z-score),[28],-0.212
same,glycan array binding signal (z-score),[29],-0.2
same,glycan array binding signal (z-score),[30],-0.203
same,glycan array binding signal (z-score),[31],-0.194
same,glycan array binding signal (z-score),[32],-0.201
same,glycan array binding signal (z-score),[33],-0.204
same,glycan array binding signal (z-score),[34],-0.185
same,glycan array binding signal (z-score),[35],-0.201
same,glycan array binding signal (z-score),[36],-0.197
same,glycan array binding signal (z-score),[37],-0.204
same,glycan array binding signal (z-score),[38],-0.188

# From the supplement of paper PMC8728848
